Our source for the activation values is PubChem BioAssay AID1346428 (National Center for Advancing Translational Sciences (NCATS), 2018).

Structures are written as SMILES. Values joined by “and” are separate entries in the source; they are usually repeats but may differ in a detail not shown here. Equal entries are not always repeated. Hit rate of the full screen: of about 48,000 compounds, about 1,200 (2.5%) were called active. Roughly 2% stayed inconclusive and do not appear here.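 How the source made its calls: active means activation of at least 60% and not above a set upper limit (about 1 call in 100 departs from these limits); inconclusive means activation of 40% to 60%, or above that upper limit; inactive means activation under 40%.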 The list shows a part of the results.

The target in this test is Probable G-protein coupled receptor 32 (Homo sapiens) (UniProt O75388). In words: qHTS for Agonists of Human Resolvin D1 Receptor DRV1. Further: 0% is about no effect. As to conditions: CHO-K1 GPR32 beta-arrestin PathHunter luminescence, 90 min; at 76.9 µM; hits give high values; zero percent set by DMSO-only wells. In outline: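 Cells are plated overnight, treated with compounds in DMSO for 90 minutes at 37 °C, and developed with PathHunter detection reagent for 1 hour before luminescence is read; signal reflects beta-arrestin binding to GPR32 in engineered CHO-K1 cells.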
UniProt O75388, sequence (O75388 whole entry, looked up): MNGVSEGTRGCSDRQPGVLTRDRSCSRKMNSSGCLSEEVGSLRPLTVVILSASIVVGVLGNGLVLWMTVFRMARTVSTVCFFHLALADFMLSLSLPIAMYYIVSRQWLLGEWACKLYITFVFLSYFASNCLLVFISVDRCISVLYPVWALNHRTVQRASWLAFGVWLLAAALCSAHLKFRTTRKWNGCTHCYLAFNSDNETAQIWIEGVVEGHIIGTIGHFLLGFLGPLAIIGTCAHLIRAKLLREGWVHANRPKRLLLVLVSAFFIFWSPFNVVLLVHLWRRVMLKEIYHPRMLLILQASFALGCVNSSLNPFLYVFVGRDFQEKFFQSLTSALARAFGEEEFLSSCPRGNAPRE
Take `CCOc1cc(CNC(=O)c2cc(-c3ccccc3)n[nH]2)cc(OCC)c1OCC`: the activation is inactive: -13.1%.
With `COc1ccc(-c2noc(N3CCC(C(=O)Nc4cccc(C)c4C)CC3)n2)cc1` the figure was inactive: -13.8%; with `CCc1ccc(NC(=O)CSc2nc3nc(C)cc(C)n3n2)cc1`, inactive: 38.2%; with `CCOc1cc(C(c2c(C)[nH]n(-c3ccccc3)c2=O)c2c(C)[nH]n(-c3ccccc3)c2=O)ccc1O`, inactive: 9.61%.
With `O=C(CN1C(=O)C2(SCC(=O)N2c2ccc(F)c(F)c2)c2ccccc21)NCCc1ccccc1` (stereo not drawn) the figure was inactive: -11.3%.
As for `COc1ccc(N2CCN(C(=O)c3cc4c(=O)n(Cc5cccnc5)ccc4nc3C)CC2)cc1`, the figure is inactive: -11.7%; as for `COc1ccc(CCNC(=O)c2cnn(-c3ccc(F)cc3)c2C2CCN(C(=O)OC(C)(C)C)CC2)cc1OC`, inactive: -13.2%.
Regarding `COc1ccc(NC(=O)c2oc3ccc(S(=O)(=O)N4CCOCC4)cc3c2C)c(OC)c1`, the activation is inactive: -9.81%.
Turning to `CC(Oc1ccccc1)C(=O)Nc1ccc(C(=O)OCc2cc(=O)n3nc(C(C)C)sc3n2)cc1` (stereo not drawn), the activation was inactive: -7.31%.
In the case of `Cc1[nH]c2ccc(C(=O)N3CCN(c4ccccc4F)CC3)cc2c1C`, the activation was inactive: -0.393%.
With `CCN(CC)S(=O)(=O)c1ccc(NC(=O)Cn2ncc3c([nH]c4ccccc43)c2=O)cc1` the figure was inactive: -14.3%.
With `CCOc1ccc(/C=C/c2nc(C#N)c(N3CCN(CC)CC3)o2)cc1` the figure was inactive: -7.23%; with `O=C(NCCc1ccc(F)cc1)C(=O)NCC(c1ccco1)S(=O)(=O)c1ccccc1` (stereo not drawn), inactive: 12.8%.
For `Cc1cc(C)cc(OCC(=O)Nc2nc(-c3ccc(F)cc3)ns2)c1`, the activation was inactive: 4.54%.
In the case of `Cc1ccccc1NC(=O)CSc1c(C(C)C)cnc2c1c(=O)n(C)c(=O)n2C`, the activation was inactive: -6.33%.
With `Cc1cc(F)ccc1NC(=O)c1csc2c1CCC(C)C2` (stereo not drawn), the activation was inactive: -5.72%.
With `COC(=O)c1cc(NS(=O)(=O)c2ccc3c(c2)OCCO3)ccc1Cl` the figure was inactive: 18.4%; with `CCOc1ccccc1NC(=O)CSc1nc2ccccc2nc1N1CCOCC1`, inactive: -33.6%.
For `O=C(Cn1c(=O)n(-c2ccccc2)c(=O)c2c3c(sc21)CCC3)c1ccc(F)cc1`, the activation was inactive: -10.5%.
With `Cc1c(Cl)cccc1-n1ncc(C(=O)NCCN2CCN(C)CC2)c1C1CCN(C(=O)OC(C)(C)C)CC1` the figure was inactive: -6.68%.
Turning to `CC(=O)O[C@H]1C(=O)[C@@]2(C)C([C@H](OC(=O)c3ccccc3)[C@]3(O)C[C@H](OC(=O)[C@H](O)[C@@H](NC(=O)c4ccccc4)c4ccccc4)C(C)=C1C3(C)C)[C@]1(OC(C)=O)CO[C@@H]1C[C@@H]2O` (stereo partly drawn), the activation is inactive: -6.49%.
As for `O=C(NCc1ccccc1)c1ccc2c(c1)N(Cc1ccccc1F)C(=O)c1ccccc1S2=O` (stereo not drawn), the figure is inactive: -25.6%; as for `COc1ccc(C(=O)CC(=O)c2ccc(C(C)(C)C)cc2)cc1`, inactive: -12.2%; as for `Cc1ccc(C2CC(=O)n3nc(-c4ccc(Cl)cc4)nc3S2)cc1` (stereo not drawn), inactive: -2.66%.
As for `COc1cccc(CN(C(=O)COc2ccc(Cl)c(C)c2)C2CCS(=O)(=O)C2)c1` (stereo not drawn), the figure is inactive: -10.9%.
As for `O=C(Nc1ccc(Cl)cc1)c1cnn2c1NC(c1ccccc1)=CC2c1ccccc1` (stereo not drawn), the figure is inactive: -17.3%; as for `CCc1ccc(NC(=O)CSc2nc3c([nH]c4ccccc43)c(=O)n2-c2ccc(C)cc2)cc1`, inactive: -8.67%; as for `Cc1ccc(CNC(=O)CCS(=O)(=O)c2cc3c4c(c2)CCN4C(=O)CC3)cc1`, inactive: 1.99%.
Regarding `Cc1ccc(NC(=O)c2ccc(NC(=O)N3CCSc4ncccc43)cc2)c(Cl)c1`, the activation was inactive: 1.1%.
As for `CCN(CC)c1cc(C)c2cc(NC(=O)c3ccc(OC)c(OC)c3)ccc2n1`, the figure is inactive: 36.2%.
As for `O=C(Nc1ccccc1)c1cnc(N2CCCCC2)c2ccccc12`, the activation was inactive: -1.16%.
For `COc1ccc(-c2cc(C)no2)cc1S(=O)(=O)N1CCN(c2cccc(C)c2)C(C)C1` (stereo not drawn), the activation is inactive: -6.33%.
With `Cc1ccccc1NC(=O)NCCc1c[nH]c2ccccc12` the figure was inactive: 25%; with `COc1cccc(N2CCN(C(=O)c3cnc4c(-c5ccccc5)c(C)nn4c3C)CC2)c1`, inactive: -27.3%.
With `COc1ccccc1C(=O)Nc1c(C(=O)Nc2cc(Cl)ccc2C)sc2nc(C)cc(C)c12` the figure was inactive: -4.59%; with `COc1cccc(CN2C(=O)c3ccccc3Sc3ccc(C(=O)NCc4ccccc4)cc32)c1`, inactive: -19.9%.
With `COc1cccc2cc(C(=O)N3CCN(c4cc(C)ccc4C)CC3)c(=O)oc12` the figure was inactive: 7.84%; with `Fc1ccccc1Nc1c2c(nc3ccccc13)CCC2`, inactive: 48.5%; with `Cc1nc(SCC(=O)N2CCN(c3ccccc3)CC2)[nH]c(=O)c1C`, inactive: -0.939%.
Turning to `COc1ccc(-c2ccc(NS(=O)(=O)c3ccc(NC(C)=O)cc3)cc2)nn1`, the activation was inactive: -21.2%.
As for `COc1ccc(OC)c(NC(=O)c2c(NCc3cccs3)sc3c2CCCCC3)c1`, the figure is inactive: -6.75%; as for `CCN(CC)c1ccc(NC(=O)c2c(C)nn(-c3ccc(F)cc3)c2-n2cccc2)c(C)c1`, inactive: 22.9%; as for `CCc1ccccc1NC(=O)CN(C)S(=O)(=O)c1cccc2nsnc12`, inactive: -6.13%.
Turning to `CCOc1ccccc1NC(=O)CSc1c2c(nc3ccc(Cl)cc13)CCCC2`, the activation was inactive: -32.6%.
As for `COc1ccc(S(=O)(=O)N(CC(=O)NCCSc2ccc(C)cc2)c2ccc(C)cc2)cc1`, the figure is inactive: 3.2%.
For the compound `NC(=O)n1c(O)c(C(=O)c2cccs2)c2cc(Cl)ccc21`, the activation was inactive: -0.0959%.
As for `CCc1c(-c2ccccc2)nc2ccccc2c1C(=O)NC(C)c1ccccc1` (stereo not drawn), the figure is inactive: -18.2%.
As for `Cc1[nH]c2ccc(C(=O)NCCCN3CCCCC3)cc2c1C`, the figure is inactive: -15.5%; as for `COc1ccc(-c2noc(CNC(=O)c3cc(OC)c(OC)c(OC)c3)n2)cc1`, inactive: 6.73%; as for `CC1CCc2onc(C(=O)Nc3ccc(Cl)cc3)c2C1` (stereo not drawn), inactive: -5.11%.
As for `Cc1nc2c(c(C)c1CCC(=O)NCc1ccc(F)cc1)c(=O)n(C)c(=O)n2C`, the figure is inactive: -9.35%; as for `CCCN(c1ccccc1F)S(=O)(=O)c1ccc2c(c1)C(C)(C)C(=O)N2C`, inactive: -1.75%.
For the compound `CC(=O)N1CCC(N(Cc2ccc(C)o2)C(=O)Nc2ccccc2F)CC1`, the activation was inactive: 10.8%.
With `CCOc1ccccc1NC(=O)Cn1nnc(C(=O)NCc2cccs2)c1N` the figure was inactive: 10.6%; with `CCOC(=O)c1cc(OC(=O)c2ccccc2F)n(-c2ccccc2)n1`, inactive: 46%; with `CCOc1c(Br)cc(C2C=C(C(=O)O)Nc3ncnn32)cc1OC` (stereo not drawn), inactive: -8.07%.
With `COc1ccc(NCc2cc3cc4c(cc3n(CC(=O)Nc3ccc(C)cc3C)c2=O)OCO4)cc1` the figure was inactive: -56%.
As for `CC(=O)N1c2ccccc2C(=O)C1N1CCN(c2ccc(Cl)cc2)CC1` (stereo not drawn), the figure is inactive: -32.6%; as for `O=C(NCc1ccccc1)c1cc(Sc2cccc(Cl)c2)nc2ccccc12`, inactive: -18.7%.
Regarding `Nc1nc2c(ncn2COCCO)c(=O)[nH]1`, the activation is inactive: -5.02% and inactive: 6.29%.
With `Cc1ccc(-c2nc(S(=O)(=O)c3ccc(F)cc3)c(N3CCN(c4ccccc4)CC3)o2)cc1` the figure was inactive: 4.99%; with `CC(C)C[C@H](N)c1nnc(SCc2ccc(Cl)cc2Cl)o1`, active: 76.7%.
With `CC1=C(c2ccc(C(C)C)cc2)S(=O)(=O)N=C1N1CCN(c2ccccc2F)CC1` the figure was inactive: -6.91%; with `Cc1ccccc1Nc1nn2c(=O)c3ccc(C(=O)NCC(C)c4ccccc4)cc3nc2s1` (stereo not drawn), inactive: 24.1%.
Turning to `CCCCN(C)CCNC(=O)c1nn(-c2ccc(OC)c(Cl)c2)c(=O)c2c1c1ccccc1n2C`, the activation is inactive: 13.1%.
With `Cc1nn(-c2ccccc2)c2sc(C(=O)Nc3ccc(Cl)cc3Cl)cc12` the figure was inactive: -19.7%.
As for `Cc1cccn2c(=O)c(C(=O)N3CCN(c4ccccc4F)CC3)cnc12`, the figure is inactive: -0.207%; as for `COc1ccc(C(=O)Nc2nnc(SCc3cc(=O)c4cc(C)ccc4[nH]3)s2)cc1OC`, inactive: 13.9%; as for `COc1ccc(CNC(=O)Cn2c(=O)c3cccn3c3cccnc32)cc1`, inactive: 4.93%.
As for `NCCSSCCN`, the figure is inactive: -6.25%.
Regarding `COC(=O)C1=C(CS(=O)(=O)c2ccc(C)cc2C)NC(=O)NC1c1ccc(C)cc1` (stereo not drawn), the activation is inactive: 2.26%.
With `COc1ccc2c(C)c(CCC(=O)NCCc3ccccc3)c(=O)oc2c1` the figure was inactive: 49.5%.
As for `CCN(CC)c1ccc2cc(-c3nnc(Nc4ccc(C)cc4)s3)c(=O)oc2c1`, the figure is inactive: -3.57%.
As for `Cc1cc(C)c(S(=O)(=O)NCc2ccc3c(c2)CCN3C(=O)c2ccccc2)c(C)c1`, the figure is inactive: -12.2%; as for `COC(=O)c1ccc(NC(=O)c2c(NCc3cccc(F)c3)sc3c2CCCC3)cc1`, inactive: -9.9%; as for `Cc1cc(NC2CCCCC2)nc(-n2nc(C)cc2C)n1`, inactive: -25.6%.
Consider `Cc1cc2c(cc1S(=O)(=O)N(CCN(C)C)Cc1ccccc1)OCC(=O)N2`, for which the activation is inactive: -7.76%.
With `Cc1cccc(N2CCN(S(=O)(=O)c3cc(C(=O)Nc4ccc(Oc5ccccc5)cc4)ccc3F)CC2C)c1` (stereo not drawn), the activation is inactive: -5.77%.
With `COc1ccc(C(=O)NCCn2cc(SCC(=O)Nc3ccc4c(c3)OCCO4)c3ccccc32)cc1` the figure was inactive: -2.26%; with `CCC(Oc1ccccc1F)C(=O)Nc1cc(-c2ccccc2)no1` (stereo not drawn), inactive: -23.8%; with `COc1ccccc1C(c1c(O)cc(C)n(Cc2ccco2)c1=O)N1CCCCC1` (stereo not drawn), inactive: -8.78%.
Consider `COc1ccc(Nc2cc(C)c3cc(NC(=O)c4ccccc4Cl)ccc3n2)cc1`, for which the activation was inactive: 20.5%.
As for `Fc1ccc(-c2noc3ncnc(NCCc4ccc(Cl)cc4)c23)cc1`, the figure is inactive: 13.2%.
